Source: PubChem BioAssay AID1745853 (National Center for Advancing Translational Sciences (NCATS), 2022)
Where “and” joins values, the source holds several entries; their conditions need not be identical. Equal values may be shown once. This is one part of the list. The main result of the screen is listed elsewhere. These columns were measured beside it and carry no call.

How the values were obtained:
Assay in all cases: Primary Screen for Target Class Profiling of Small Molecule Inhibitors of Methyltransferases
[1] = molecular target: Glycine N-methyltransferase (Homo sapiens) (UniProt Q14749); conditions: purified enzyme, MTase-Glo SAH luminescence; measured here: GNMT inhibition; at 40 µM; stronger effect = lower value
Method in brief: (§1)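 Each enzyme was reacted with SAM and its substrate, with compounds tested once at 40 uM; SAH formed was read by MTase-Glo luminescence.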

[2] = molecular target: Guanidinoacetate N-methyltransferase (Homo sapiens) (UniProt Q14353); conditions: purified enzyme, MTase-Glo SAH luminescence; measured here: GAMT inhibition; at 40 µM; stronger effect = lower value
Method in brief: as §1

[3] = molecular target: Histamine N-methyltransferase (Homo sapiens) (UniProt P50135); conditions: purified enzyme, MTase-Glo SAH luminescence; measured here: HNMT inhibition; at 40 µM; stronger effect = lower value
Method in brief: as §1

[4] = molecular target: Nicotinamide N-methyltransferase (Homo sapiens) (UniProt P40261); conditions: purified enzyme, MTase-Glo SAH luminescence; measured here: NNMT inhibition; at 40 µM; stronger effect = lower value
Method in brief: as §1

[5] = molecular target: Phenylethanolamine N-methyltransferase (Homo sapiens) (UniProt P11086); conditions: purified enzyme, MTase-Glo SAH luminescence; measured here: PNMT inhibition; at 40 µM; stronger effect = lower value
Method in brief: as §1
On the % scale 0 is the no-effect control and ±100 the full control effect.

Row | SMILES | activity change, negative = inhibition [1] [%] | activity change, negative = inhibition [2] | activity change, negative = inhibition [3] [%] | activity change, negative = inhibition [4] | activity change, negative = inhibition [5]
1 | CC1CCCCC1NC(=O)C1(C)Cn2c(cc3occc32)C(=O)N1CCc1ccc(Cl)cc1 (stereo not given) | -2.16 | 4.76% | -1.98 | -0.219% | -1.18%
2 | CC1CCCCN1CCN1C(=O)c2ccc(-c3ccco3)n2CC1(C)C(=O)NC1CCCCCC1 (stereo not given) | 3.67 | 3.3% | 6.89 | -0.321% | 0.673%
3 | O=C(c1cccs1)N1CCCN(c2cc(-c3ccc(F)cc3)[nH]n2)CC1 | -5.31 | -0.711% | 0.071 | -4.07% | -0.733%
4 | Clc1ccccc1CNC[C@H]1Cn2ccnc2CO1 | -4.89 | -4.01% | -3.81 | -12.5% | -6.42%
5 | COc1cccc(CSc2nnc3n(C)c(=O)c4ccc(C(=O)NC5CCCCC5)cc4n23)c1 | -2.2 | 3.21% | 0.764 | -3.9% | 0.056%
6 | COc1ccc2c(c1O)OC[C@H]1c3ccc(O)cc3O[C@@H]21 | -8.69 | 1.28% | -12.2 | -12.2% | -2.35%
7 | CCOC(=O)c1cc2n(n1)CC(C)(C(=O)NCc1ccccc1)N(Cc1ccc(C)o1)C2=O (stereo not given) | 3.8 | 0% | 13.1 | 11% | 7.35%
8 | CC1CCC2C(C)(C)C(O)CCC2(C)C12Cc1c(O)cc3c(c1O2)CN(C(CCC(N)=O)C(=O)O)C3=O (stereo not given) | -2.64 | -5.54% | 1.78 | -14.5% | -2%
9 | C=C(C)[C@@H]1CC[C@]2(C)CC[C@]3(C)[C@H](CC[C@@H]4[C@@]5(C)CC[C@@H](O)C(C)(C)[C@@H]5CC[C@]43C)[C@@H]12 | -2.42 | -7.54% | 8.77 | -19.7% | -14.3%
10 | CCCCN(CC)CCN1C(=O)c2cc3sccc3n2CC1(C)C(=O)NC1CCCCCCC1 (stereo not given) | 2.33 | 1.04% | -1.88 | 2.04% | -0.338%
11 | C=C1C2(C)CC3C4(C)C=CC(=O)OC(C)(C)C4CCC3(C)C1(C(=O)OC)C(=O)C(C)(O)C2=O (stereo not given) | 0 | 1.07% | 3.91 | -13% | 2.62%
12 | COc1cc(Nc2nc3c(S(=O)(=O)c4ccccc4)nnn3c3ccccc23)cc(OC)c1 | -0.706 | 1.83% | 4.5 | 8.15% | 0.317%
13 | Cc1nnsc1C(=O)Nc1ccc(-n2nc(C(F)(F)F)cc2C(F)(F)F)cc1 | -2.16 | 3.35% | 9.74 | -14.2% | -4.82%
14 | COc1ccccc1CN1C(=O)c2ccc(-c3ccccc3)n2CC1(C)C(=O)NC1CCCCC1 (stereo not given) | 1.57 | 2.01% | 3.32 | -4.81% | -1.11%
15 | CCC(C)NC(=O)c1ccc2c(=O)n(Cc3ccccc3)c3nn(Cc4cccc(F)c4)c(=O)n3c2c1 (stereo not given) | 2.95 | 0% | 2.11 | -0.255% | 4.05%
16 | CCCSc1nc(N[C@@H]2C[C@H]2c2ccc(F)c(F)c2)c2nnn([C@@H]3C[C@H](OCCO)[C@@H](O)[C@H]3O)c2n1 | -28.5 | -13.2% and -4.71% | -43.4 | -55.5% and -53% | -42.1% and -30.6%
17 | CCOc1ccc(CN2C(=O)c3oc4ccccc4c3OCC2(C)C(=O)NC2CCCC2)cc1 (stereo not given) | 3.46 | 0.561% | 3.2 | 7.09% | 7.08%
18 | CCOc1ccc(N2C(=O)c3cc(-c4ccccc4)nn3CC2(C)C(=O)NCc2ccccc2OC)cc1 (stereo not given) | 2.27 | 1.83% | 6.34 | 6.49% | -2.73%
19 | Cc1ccc(N2C(=O)CSc3c(c4ccccc4n3C)C2C(=O)NCc2ccc(F)cc2)cc1C (stereo not given) | 0.753 | 0% | 8.72 | 4.68% | 3.02%
20 | COc1ccc2c(c1)c(NC(C)=O)c1n2CC(C)(C(=O)NC2CCCC2)N(CCC(C)C)C1=O (stereo not given) | 7.61 | 0.135% | 12.4 | 16% | 5.54%
21 | O=C(Nc1ccc([C@H]2OCC(=O)N(C3CCOCC3)[C@@H]2CO)cc1)c1cnccn1 | -2.75 | -1.14% | -1.75 | -0.173% | 7.87%
22 | CNCCN(C)C(=O)C1CCCN(C2CCN(C3Cc4ccccc4C3)CC2)C1 (stereo not given) | -3.11 | -4.3% | -2.99 | -6.2% | -5.79%
23 | CC(C)C(=O)N1CCc2[nH]nc(C(=O)NCCCc3ccccc3)c2C1 | -0.903 | 0.224% | -7.85 | -13.8% | 2.54%
24 | COc1cccc(CNC(=O)CCn2ccc3cc(S(=O)(=O)N4CCC(C)CC4)ccc32)c1 | 4.32 | 0% | -1.2 | 1.1% | -1.85%
25 | CCc1cccc(NC(=O)Cn2nc3n(C)c(=O)c4ccc(C(=O)NC5CCCC5)cc4n3c2=O)c1 | -2.36 | 0.657% | -4.11 | -4.88% | -2.13%
26 | Cc1noc(C)c1S(=O)(=O)N1CC(c2noc(C3CCCN3C)n2)C1 (stereo not given) | -1.2 | 1.64% | 0.383 | 2.97% | 1.59%
27 | Cc1ccnn1CC(=O)N(Cc1ccncc1)Cc1cccc(OCCc2ccc(F)cc2)c1 | -1.45 | 0.789% | 0.844 | 1.37% | 3.02%
28 | Cn1c(=O)c2ccc(C(=O)NC3CCCC3)cc2n2c(=O)n(CC(=O)Nc3ccccc3F)nc12 | -1.67 | -0.843% | -1.54 | -1.67% | -1.41%
29 | C=CC(=O)Nc1cccc(Nc2nc(Nc3ccc(Oc4ccnc(C(=O)NC)c4)cc3)ncc2F)c1 | -23.8 | -10.1% | -66 | -51.3% | -10%
